Assay results: publication PMC12136788
Some of the results follow.

B1: chr10:128098031:128098192:-|3pUTR|ENSG00000148773|msi1|FALSE|unique (ssRNA)
RNA: GGGAGUUCUACAGUCCGACGAUCCAUCUUCAUUUACUUUCCACUUUGCCCCCUGUCCUCUCUGUGUUCCCCAAAUCAGAGAAUAGCCCGCCAUCCCCCAGGUCACCUGUCUGGAUUCCUCCCCAUUCACCCACCUUGCCAGGUCAACAGAGGAUUGAGCAUCA
B2: chr10:15076158:15076259:-|3pUTR|ENSG00000176244|unk|total|mutant (ssRNA)
RNA: GGGAGUUCUACAGUCCGACGAUCAGAUCCCUUAAGAUAAAUAUCCCCCAAAACAGUGUACCUCUAUUCCCUGCAUAAAAAUUCCGAUUUGGAAUGGUAUGACCAGAGGAACCGAUCCACUUCAUGUUACUACAACAACAAAACCAACAGAGGAUUGAGCAUCA
B3: chr3:69105919:69106020:+|3pUTR|ENSG00000144746|msi1|FALSE|bound_elsewhere (ssRNA)
RNA: GGGAGUUCUACAGUCCGACGAUCGUGCUGCUUCUGAUUUUUCUUGCAUUUUAAAUUCUCAGCCAACCUACAGCCAUGAUCUUUAGCACAGUGAUAUCACCAUGACUUCACAGACAUGGUCUAGAAUCUGUACCCUUACCCACACAACAGAGGAUUGAGCAUCA
B4: ENSG00000124766:be:win_351|CDS|ENSG00000124766|bound_else_gene|NA|bound_elsewhere_windowed (ssRNA)
RNA: GGGAGUUCUACAGUCCGACGAUCCAAGCACAUGGCUGACUACCCCGACUACAAGUACCGGCCCAGGAAGAAGGUGAAGUCCGGCAACGCCAACUCCAGCUCCUCGGCCGCCGCCUCCUCCAAGCCGGGGGAGAAGGGAGACAACAACAGAGGAUUGAGCAUCA
B5: ENSG00000107863:be:win_501|CDS|ENSG00000107863|bound_else_gene|NA|bound_elsewhere_windowed (ssRNA)
RNA: GGGAGUUCUACAGUCCGACGAUCGUUUACAAAGGAUGUCACAGCACUGGCAUAUUCUCAAGAUGCCUACCUGAAAGGCAACGAAGCUUAUAGCGGCAAUGCCCGCAAUAUACCUGAACCUCCACCAAUCUGCUAUCCCUGGCUCAACAGAGGAUUGAGCAUCA
B6: chr12:108522223:108522324:-|3pUTR|ENSG00000075856|msi1|FALSE|unique (ssRNA)
RNA: GGGAGUUCUACAGUCCGACGAUCUCAGUCGGGUUUUCUAUAUUUUUUUAACUUAACAUUUUUUAAUAUAACCGAUUAAAAAGUAGACAGAACAGUAAAAUAAACUCCUGUGUGCCUACCAUUCAGCUUCCAGCAUUCCUCAACCAACAGAGGAUUGAGCAUCA
B7: chr17:58301230:58302447:-|three_prime_utr|ENSG00000005379|control|control|control (ssRNA)
RNA: GGGAGUUCUACAGUCCGACGAUCGGGAAUCAAAGAGCCUUGGUGAAGGUCAGAGCUAAAUGGCUCCUUAAGGAUGAACUCUCUAGAGAAGCACCUUCCUCCUACAGGAGGGGAAACUGAGCCCACAGUGAGUAUGUAACUUGACAACAGAGGAUUGAGCAUCA
B8: chr11:113276125:113276317:+|3pUTR|ENSG00000149294|msi1|total|mutant (ssRNA)
RNA: GGGAGUUCUACAGUCCGACGAUCGUCCGUGUAAAACCGCUGCCUUUUAUUUUUUAAGGUAACAAAUACCACCCCGAGGCCGGCCGGAUCAUCCCACGCUUGCUUCCGCACAGGACAACUUUACAAAACAUGAUUGUUUACAGCCAACAGAGGAUUGAGCAUCA
B9: chr14:53039561:53039662:-|3pUTR|ENSG00000100523|unk|FALSE|unique (ssRNA)
RNA: GGGAGUUCUACAGUCCGACGAUCUCAAACUAUAUUUUUGUUACAGCAAACUACAUUCCAUUUGCCUUUAAAUGCUUGCAUUUUAGUUAUUGUACUGGCUACCUGUUUUUGUCUGCCCAGCAUCCUGUUUCCCCUCCUUUUGGACAACAGAGGAUUGAGCAUCA
B10: chr12:54395726:54395827:-|3pUTR|ENSG00000161638|msi1_unk|total|mutant (ssRNA)
RNA: GGGAGUUCUACAGUCCGACGAUCAAGAACACUAACUAUGCAUGGUGCCCCAGGACCAGCUCAGGACAGAUGCCACACAAGGACCGAUGCUGGCCCAGGGCCCAGAGCCCAGCUCCAAGGGGAAUCAGAACUCAAAUGGGGCCACAACAGAGGAUUGAGCAUCA
B11: ENSG00000136451:be:win_3251|3pUTR|ENSG00000136451|bound_else_gene|NA|bound_elsewhere_windowed (ssRNA)
RNA: GGGAGUUCUACAGUCCGACGAUCCUUAGUGUAAAAUAAUUUUAUAAAUGAUCUUUUGUACUUUAGGACAUUAAAUUGUACAACUUUUGUAUAUAUAAAAGCUUAGGAACUUUCUGUUUAGCAGGAAGGCAACACAUUCCUACACAACAGAGGAUUGAGCAUCA
B12: chr11:130877263:130877364:-|3pUTR|ENSG00000120451|msi1|FALSE|unique (ssRNA)
RNA: GGGAGUUCUACAGUCCGACGAUCCAGUCCUUUAACAACACCAGCAUGAAGGCAAAGGUGUUUUGUCAGACUGCAACAUCUAUUAGAAAGGCAAGGCAACUGGGAAUUGCUGGAGAAGGAUAAAUCAGGAGGAAUUGCUGGUAGCAACAGAGGAUUGAGCAUCA
B13: chr11:64204363:64204470:+|3pUTR|ENSG00000168439|unk|total|mutant (ssRNA)
RNA: GGGAGUUCUACAGUCCGACGAUCGCCCUCGAGUUCCAUGUCUCUUUCCCCUGCCCCCCGUUGCUGUCUCGGCUGCUCUCCCACCGUUGGUUUUUUUUUUAUUUGGGGCAGUGGGCAUGUUAUGGGGAGGGGAGGGGGUUCUUCCAACAGAGGAUUGAGCAUCA
B14: chr1:225789428:225789553:+|3pUTR|ENSG00000143742|unk|FALSE|unique (ssRNA)
RNA: GGGAGUUCUACAGUCCGACGAUCUUAGAGAAAGUGUUGGGACAGAAAGUACUUUAUGUAACUAAGUGGGCUGUUCAGAAGCUUAGAGGUCAUUUUUUGUAAUUUUCUUUUUAAUUACUUUAGAGAGCUAGGGAUGCAAAUGUUCAACAGAGGAUUGAGCAUCA
B15: ENSG00000130816:stop:overlap|stop_codon|ENSG00000130816|stop_codon|NA|stop_codon (ssRNA)
RNA: GGGAGUUCUACAGUCCGACGAUCUGGCCAAAGCCCGAGAGAGUGCCUCAGCUAAAAUAAAGGAGGAGGAAGCUGCUAAGGACUAGUUCUGCCCUCCCGUCACCCCUGUUUCUGGCACCAGGAAUCCCCAACAUGCACUGAUGUCAACAGAGGAUUGAGCAUCA
B16: chr2:53865134:53865235:-|3pUTR|ENSG00000068878|unk|total|mutant (ssRNA)
RNA: GGGAGUUCUACAGUCCGACGAUCGUCCUGUCAUUUCAUUCAUCUCAAAUUAUUUUGAAUUCUUCCCAAAUGGCUGCUGGAUUCCGGUGGUAACCGGGGCUGUGGGCCAUAAAUCUGAAGCCUUGAGAACCUUGGGUCUGGAGACAACAGAGGAUUGAGCAUCA
B17: chr11:85659139:85659240:-|3pUTR|ENSG00000137504|msi1|total|mutant (ssRNA)
RNA: GGGAGUUCUACAGUCCGACGAUCGUCUGAUUCCGUAAAAUUUUAAAGCUAAAUAAUCUGAUGACUCUUGAAAGUUUAAUUGGCCGUAUGACAUUUAUGUUUUUUUCCCCCAGACUCACAGCCAAUACAAAGUUUUGAGACUCCCAACAGAGGAUUGAGCAUCA
B18: chr11:104891169:104891404:-|CDS|ENSG00000204403|control|control|control (ssRNA)
RNA: GGGAGUUCUACAGUCCGACGAUCUUUGCUGCUCACCCAGAGCACCAGUCCUCAGACAGCACAUUCCUGGUGUUUAUGUCACAUAGCAUCCUGAAUGGAAUCUGUGGGACCAAGCACUGGGAUCAAGAGCCAGAUGUUCUUCACCAACAGAGGAUUGAGCAUCA
B19: chr1:185309019:185309167:-|CDS|ENSG00000116679|unk|FALSE|unique (ssRNA)
RNA: GGGAGUUCUACAGUCCGACGAUCGCACACAGAGCAGUGCUAGCUUGCUGCAGUCCCUAUUUAUUUGAAAUCUUUAAUAGUGAUAGUGAUCCUCAUGGAAUUUCUCACGUUAAAUUUGAUGAUCUCAAUCCAGAAGCUGUUGAACAACAGAGGAUUGAGCAUCA
B20: chr18:9400975:9401076:+|3pUTR|ENSG00000128791|msi1|total|mutant (ssRNA)
RNA: GGGAGUUCUACAGUCCGACGAUCUAUAAAAACCGAUAAUGCUCUUGGACACAUUUUGUAUUAUUCAUGAUCUGAACCGCCGUCCGUUAAAAGAUCAUUUGUAAUAUUAUGAUCAACUGUUAUAAAUUAAGGUCUUAAUACCUUCAACAGAGGAUUGAGCAUCA
B21: chr17:42200006:42200107:-|3pUTR|ENSG00000173757|unk|total|mutant (ssRNA)
RNA: GGGAGUUCUACAGUCCGACGAUCAAGCUGCCGUUUGCCUUGGCUUGGUUUCAUACACUGAUUUAUUUUUCUAUGCCAGGCAGCCGAGUCUCUCUGCCUCUGAGGAGCAGGCUACCCGCAUCCCACUCAGCCCCUCCCUACCCCCAACAGAGGAUUGAGCAUCA
B22: chr12:50175971:50176072:-|3pUTR|ENSG00000050405|msi1|FALSE|bound_elsewhere (ssRNA)
RNA: GGGAGUUCUACAGUCCGACGAUCCACAGUAUUCUCAGGGUGAAAUUAAACCAACUAUAGGCCUUUUUCUUGGGAUGAUUUUCUAGUCUUAAGGUUUGGGGACAUUAUAAACUUGAGUACAUUUGUUGUACACAGUUGAUAUUCCAACAGAGGAUUGAGCAUCA

target: MSI1 full-length (mouse, UniProt Q61474 1-362); assay: nsRBNS (natural sequence RNA bind-n-seq); RBNS binding buffer (assumed for nsRBNS): 25 mM Tris pH 7.5, 150 mM KCl, 3 mM MgCl2, 0.01% Triton X-100, 500 ug/ml BSA, 20 U/ml SUPERase-In, 4 C; UNK is unkempt and MSI1 is Musashi-1; names of the RNAs are library labels; protein concentration not given here; high values mean tight binding
Chain of UniProt Q61474 (Q61474 whole entry): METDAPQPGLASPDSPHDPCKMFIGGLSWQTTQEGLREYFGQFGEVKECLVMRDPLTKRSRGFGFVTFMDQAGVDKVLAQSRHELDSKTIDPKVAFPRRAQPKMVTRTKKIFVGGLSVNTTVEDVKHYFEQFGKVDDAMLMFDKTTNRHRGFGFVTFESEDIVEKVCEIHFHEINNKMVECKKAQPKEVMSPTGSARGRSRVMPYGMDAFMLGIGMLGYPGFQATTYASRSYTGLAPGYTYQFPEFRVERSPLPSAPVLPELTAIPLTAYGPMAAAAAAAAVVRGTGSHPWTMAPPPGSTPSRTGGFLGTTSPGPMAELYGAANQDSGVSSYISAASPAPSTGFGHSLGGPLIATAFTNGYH

Binder | binding signal [enrichment R]
B1 | 1.16
B2 | 0.407
B3 | 0.576
B4 | 0.392
B5 | 0.392
B6 | 1.08
B7 | 0.992
B8 | 0.624
B9 | 1.58
B10 | 0.515
B11 | 10.7
B12 | 1.33
B13 | 0.741
B14 | 1.67
B15 | 4.63
B16 | 0.372
B17 | 0.888
B18 | 0.277
B19 | 0.669
B20 | 0.599
B21 | 0.705
B22 | 0.768
